Screen size: about 310,000 compounds; about 14,000 (4.5%) showed an effect of 50% or more. The effect is printed as a negative number. The list shows a part of the results.
target: human ether-à-go-go-related gene (hERG) potassium channel (human, UniProt Q12809); test: primary screen, population patch clamp on CHO cells stably expressing hERG
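Note: peak tail current of the secondary pulse compared with the same well before compound.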

Chain of human ether-à-go-go-related gene (hERG) potassium channel (Q12809 whole entry, looked up): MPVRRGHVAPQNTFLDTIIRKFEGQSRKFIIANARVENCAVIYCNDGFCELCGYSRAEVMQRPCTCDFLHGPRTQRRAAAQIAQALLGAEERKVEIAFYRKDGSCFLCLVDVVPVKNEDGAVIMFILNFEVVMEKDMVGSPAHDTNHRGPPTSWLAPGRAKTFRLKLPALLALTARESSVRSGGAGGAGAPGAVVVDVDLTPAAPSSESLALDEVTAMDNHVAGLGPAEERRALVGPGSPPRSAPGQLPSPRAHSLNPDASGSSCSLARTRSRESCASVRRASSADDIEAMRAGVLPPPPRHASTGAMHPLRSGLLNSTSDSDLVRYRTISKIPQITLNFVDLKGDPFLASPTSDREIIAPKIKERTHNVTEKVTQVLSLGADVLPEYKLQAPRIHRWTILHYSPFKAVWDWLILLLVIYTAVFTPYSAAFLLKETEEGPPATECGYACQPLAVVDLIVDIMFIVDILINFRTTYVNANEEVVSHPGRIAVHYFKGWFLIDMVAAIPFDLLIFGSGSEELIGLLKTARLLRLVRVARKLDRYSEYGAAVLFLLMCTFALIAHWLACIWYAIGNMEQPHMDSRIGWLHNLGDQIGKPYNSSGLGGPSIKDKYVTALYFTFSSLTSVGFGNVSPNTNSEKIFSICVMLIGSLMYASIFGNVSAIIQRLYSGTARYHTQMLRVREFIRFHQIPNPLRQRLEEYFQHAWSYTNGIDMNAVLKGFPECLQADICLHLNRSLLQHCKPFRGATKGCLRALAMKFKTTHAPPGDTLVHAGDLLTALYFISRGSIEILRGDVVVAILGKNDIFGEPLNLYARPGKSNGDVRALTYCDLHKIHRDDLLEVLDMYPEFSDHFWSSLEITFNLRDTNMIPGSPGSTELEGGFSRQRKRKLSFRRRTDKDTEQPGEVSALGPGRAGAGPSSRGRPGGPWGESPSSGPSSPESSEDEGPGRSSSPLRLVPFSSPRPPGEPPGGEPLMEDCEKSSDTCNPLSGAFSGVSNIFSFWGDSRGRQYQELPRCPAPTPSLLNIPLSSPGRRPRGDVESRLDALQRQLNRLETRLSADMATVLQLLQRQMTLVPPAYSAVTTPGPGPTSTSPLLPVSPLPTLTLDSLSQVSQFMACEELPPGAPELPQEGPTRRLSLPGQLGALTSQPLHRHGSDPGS

Going from `O=c1oc2ccccc2c(NC2CCCCC2)c1NS(=O)(=O)c1ccc(F)cc1` to `COC(=O)c1c(NS(=O)(=O)c2ccc3ccccc3c2)sc2c1CCCC2`, the “hERG current change (%, negative = inhibition) at 10uM” value rises from -3.45% to 7.85%.

Going from `COc1ccc(O)c(C(=O)c2cnn(-c3ccc(Cl)cc3)c2)c1` to `COc1ccc(C(=O)c2ccc(Cl)cc2)c2ccccc12`, the “hERG current change (%, negative = inhibition) at 10uM” value falls from 11.8% to 8.23%.

Compared with `Cc1cc(C)nc(NS(=O)(=O)c2ccc(NC(=O)c3cc(-c4ccccc4)nc4ccccc34)cc2)n1`, `Cc1ccc(S(=O)(=O)N2CCN(Cc3nc4ccccc4n3C)CC2)cc1` is lower in “hERG current change (%, negative = inhibition) at 10uM” value: -8.48% for the first, -53.5% for the second.

Compared with `CC(=O)N1CCC2(CC1)C(C#N)=C(N)Oc1n[nH]c(C)c12`, `Cc1c(C(=O)OC(C)C)[nH]c2c1C(=O)CC(C)(C)C2` is lower in “hERG current change (%, negative = inhibition) at 10uM” value: 15.5% for the first, -4.63% for the second.

First: COc1ccccc1NC(=O)CN1CCN(CC(=O)Nc2ccccc2Cl)CC1
Second: COc1ccc(S(=O)(=O)N2CCN(C/C=C/c3ccccc3)CC2)cc1F
The “hERG current change (%, negative = inhibition) at 10uM” value of the first is higher: 2.56% for the first, -30.1% for the second.

Compared with `CCOC(=O)c1ccc(NC(=O)CCS(=O)(=O)c2cccc3nonc23)cc1`, `CCS(=O)(=O)C1=NN2C(=N)/C(=C\c3ccc(OC(=O)c4ccco4)cc3)C(=O)N=C2S1` is higher in “hERG current change (%, negative = inhibition) at 10uM” value: 4.06% for the first, 17.5% for the second.

First: Cc1ccc(CNC(=S)NC2CCC(C(C)(C)C)CC2)cc1 (centres unmarked)
Second: O=C(Cc1cccs1)NNC(=S)NCc1ccc(Cl)cc1
The “hERG current change (%, negative = inhibition) at 10uM” value of the first is higher: 10.8% for the first, 10.1% for the second.

First: O=C1CCCN2N=C(SCC(=O)Nc3nc4ccccc4s3)SC2=N1
Second: O=C(CCCSc1nc2ccccc2s1)NC1=NCCS1
The “hERG current change (%, negative = inhibition) at 10uM” value of the first is higher: 2.87% for the first, -4.71% for the second.

Compared with `CC(C)(C)OC(=O)N1CCN(C(=O)c2[nH]cnc2C(=O)NCC(=O)OCc2ccccc2)CC1`, `CCOC(=O)N1CCN(C(=O)c2c[nH]c3ccc(S(=O)(=O)N(C)c4ccccc4C)cc3c2=O)CC1` is higher in “hERG current change (%, negative = inhibition) at 10uM” value: -11.9% for the first, -1.1% for the second.

First: COC(=O)c1c(NC(=O)COC(=O)c2ccc(Cl)nc2)sc(C)c1C
Second: CCOC(=O)C1=C(C)NC2=C(C(=O)CC(C)(C)C2)C1c1ccc(N(C)C)cc1 (centres unmarked)
The “hERG current change (%, negative = inhibition) at 10uM” value of the first is lower: 8.27% for the first, 9.64% for the second.

Compared with `O=C(O)C1C2C=CC(C2)C1C(=O)NCCc1cccc(Cl)c1` (centres unmarked), `CCOCCCNC(=O)C1CCC(=O)N1CCc1ccccc1` (centres unmarked) is lower in “hERG current change (%, negative = inhibition) at 10uM” value: 11.1% for the first, 5.03% for the second.

Compared with `O=C(c1ccc(N2CCN(CCO)CC2)nc1)N1CCOCC1`, `Cc1cc(C)cc(C(=O)NCCCN2CCOCC2)c1` is lower in “hERG current change (%, negative = inhibition) at 10uM” value: 20.6% for the first, 2.04% for the second.

Compared with `COc1ccc(S(=O)(=O)N2CCN(C)CC2c2ccccc2)cc1.Cl` (centres unmarked), `COC(=O)c1ccc(C23CC4(C2)[C@H](CN(CC2CCCCC2)[C@@H]4c2ccccc2)C3c2ccc(Cl)nc2)cc1` (some centres unmarked) is higher in “hERG current change (%, negative = inhibition) at 10uM” value: 1.55% for the first, 11.7% for the second.

First: COCc1cnc(C)nc1N
Second: CCOc1ncccc1C(=O)OCc1cccc([N+](=O)[O-])c1
The “hERG current change (%, negative = inhibition) at 10uM” value of the first is higher: 19.4% for the first, 10.2% for the second.

Going from `CC1=C(OC(=O)C(C)(C)C)C(C)(C)C(c2ccccc2)OC1=O` (centres unmarked) to `CC(C)CC(=O)N=C1SC2CS(=O)(=O)CC2N1Cc1ccccc1` (centres unmarked), the “hERG current change (%, negative = inhibition) at 10uM” value rises from -13.4% to 6.86%.

Compared with `CCCn1c(SCC(=O)NCC2CCCO2)nc2c1c(=O)n(C)c(=O)n2C` (centres unmarked), `CC(OC(=O)c1ccc2c(=O)n3c(nc2c1)CCC3)C(=O)NC1CCCCC1C` (centres unmarked) is lower in “hERG current change (%, negative = inhibition) at 10uM” value: 7.08% for the first, 3.36% for the second.

Going from `c1ccc(CSc2ccc(-c3cccnc3)nn2)cc1` to `FC(F)(F)c1nnc(-c2ccccc2)nc1Sc1ccccc1`, the “hERG current change (%, negative = inhibition) at 10uM” value rises from -13.7% to 13%.

Going from `CC(=O)Cn1nnc(-c2ccc(C(F)(F)F)cc2)n1` to `CC(C)(C)n1nnnc1C(c1ccc(F)cc1)N(Cc1ccc(F)cc1)Cc1ccco1` (centres unmarked), the “hERG current change (%, negative = inhibition) at 10uM” value falls from 6.1% to 1.97%.

Compared with `CCN(CC)CCNC(=O)Cc1nn(Cc2ccccc2)c(=O)c2ccccc12`, `CC(NC(=O)c1ccco1)C(c1cccs1)N1CCN(c2ccc(F)cc2)CC1` (centres unmarked) is higher in “hERG current change (%, negative = inhibition) at 10uM” value: -29.1% for the first, -8.06% for the second.

Going from `CNC(=O)O/N=C(\N)Cc1csc2ccc(Cl)cc12` to `CNS(=O)(=O)c1ccc(NC(=O)C(CCSC)NC(N)=O)cc1` (centres unmarked), the “hERG current change (%, negative = inhibition) at 10uM” value rises from -0.857% to 8.56%.

Compared with `O=C1NC(=S)SC1=C1CCCC1`, `COc1ccc(NC(=S)N2CCN(S(C)(=O)=O)CC2)cc1OC` is lower in “hERG current change (%, negative = inhibition) at 10uM” value: 24.3% for the first, 4.68% for the second.

Compared with `C/C(=N\NS(=O)(=O)c1cccc([N+](=O)[O-])c1)c1cccnc1`, `Cl.OC(CCN1CCCC1)(c1ccccc1)C1CCCCC1` (centres unmarked) is lower in “hERG current change (%, negative = inhibition) at 10uM” value: 13.6% for the first, -12.4% for the second.

— PMC4336329 (PLoS ONE, 2015)
